# The list shows a part of the results.
# B1: rCnSL-A (Clitocybe nebularis) (protein)
# chain: VNPNLPGPNDVFVGFRGTNNIVGAIYEKDGIKDTPLNNGADAEMGPGSYITDGLFTARIFASGSAGNNPGTTATVCKIYASGVQWRGAPKGYIPVAYFGNGPTAEQRRQTYLRTLGLPGTAIRFGNLNTNPGQGPTAPRQMVVPPGPLRSLLKASCFPAADTRLPQTLHYFEKRVDWNIITAADSQTWGH
# Assays:
# Assay in all cases: glycan array binding signal (z-score within array); higher = stronger binding
# Conditions in all cases: glycan notation: IUPAC condensed, linker removed
# [1] = target: Fuc(a1-2)Gal6S(b1-3)GlcNAc6S
# Summary of the method: (§1)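 Glycan array data were curated from 3228 arrays in the Consortium for Functional Glycomics database and kept only where the protein sequence was available. Glycan names were converted to IUPAC-condensed notation, and columns mapping to the same glycan were averaged. The binding signal is a within-array Z-score, averaged across arrays of the same protein sequence at different concentrations or buffers and across linkers. Negative Z-scores can be read as non-binding.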
# [2] = target: Fuc(a1-2)Gal6S(b1-4)Glc
# Summary of the method: as §1
# [3] = target: Fuc(a1-2)Gal6S(b1-4)Glc6S
# Summary of the method: as §1
# [4] = target: Fuc(a1-2)[Gal(a1-3)]Gal
# Summary of the method: as §1
# [5] = target: Fuc(a1-2)[Gal(a1-3)]Gal(b1-3)GalNAc
# Summary of the method: as §1
# [6] = target: Fuc(a1-2)[Gal(a1-3)]Gal(b1-3)GalNAc(b1-3)Gal(a1-4)Gal(b1-4)Glc
# Summary of the method: as §1
# [7] = target: Fuc(a1-2)[Gal(a1-3)]Gal(b1-3)GlcNAc
# Summary of the method: as §1
# [8] = target: Fuc(a1-2)[Gal(a1-3)]Gal(b1-3)GlcNAc(b1-2)Man(a1-3)[Fuc(a1-2)[Gal(a1-3)]Gal(b1-3)GlcNAc(b1-2)Man(a1-6)]Man(b1-4)GlcNAc(b1-4)GlcNAc
# Summary of the method: as §1
# [9] = target: Fuc(a1-2)[Gal(a1-3)]Gal(b1-3)GlcNAc(b1-2)Man(a1-3)[Fuc(a1-2)[Gal(a1-3)]Gal(b1-3)GlcNAc(b1-2)Man(a1-6)]Man(b1-4)GlcNAc(b1-4)[Fuc(a1-6)]GlcNAc
# Summary of the method: as §1
# [10] = target: Fuc(a1-2)[Gal(a1-3)]Gal(b1-3)GlcNAc(b1-3)GalNAc
# Summary of the method: as §1
# [11] = target: Fuc(a1-2)[Gal(a1-3)]Gal(b1-3)GlcNAc(b1-6)GalNAc
# Summary of the method: as §1
# [12] = target: Fuc(a1-2)[Gal(a1-3)]Gal(b1-4)Glc
# Summary of the method: as §1
# [13] = target: Fuc(a1-2)[Gal(a1-3)]Gal(b1-4)GlcNAc
# Summary of the method: as §1
# [14] = target: Fuc(a1-2)[Gal(a1-3)]Gal(b1-4)GlcNAc(b1-2)Man
# Summary of the method: as §1
# [15] = target: Fuc(a1-2)[Gal(a1-3)]Gal(b1-4)GlcNAc(b1-2)Man(a1-3)[Fuc(a1-2)[Gal(a1-3)]Gal(b1-4)GlcNAc(b1-2)Man(a1-6)]Man(b1-4)GlcNAc(b1-4)GlcNAc
# Summary of the method: as §1
# [16] = target: Fuc(a1-2)[Gal(a1-3)]Gal(b1-4)GlcNAc(b1-2)Man(a1-3)[Fuc(a1-2)[Gal(a1-3)]Gal(b1-4)GlcNAc(b1-2)Man(a1-6)]Man(b1-4)GlcNAc(b1-4)[Fuc(a1-6)]GlcNAc
# Summary of the method: as §1
# [17] = target: Fuc(a1-2)[Gal(a1-3)]Gal(b1-4)GlcNAc(b1-3)GalNAc
# Summary of the method: as §1
# [18] = target: Fuc(a1-2)[Gal(a1-3)]Gal(b1-4)GlcNAc(b1-3)[Fuc(a1-2)[Gal(a1-3)]Gal(b1-4)GlcNAc(b1-6)]GalNAc
# Summary of the method: as §1
# [19] = target: Fuc(a1-2)[Gal(a1-3)]Gal(b1-4)GlcNAc(b1-6)GalNAc
# Summary of the method: as §1
# [20] = target: Fuc(a1-2)[Gal(a1-3)]Gal(b1-4)[Fuc(a1-3)]Glc
# Summary of the method: as §1
# [21] = target: Fuc(a1-2)[Gal(a1-3)]Gal(b1-4)[Fuc(a1-3)]GlcNAc
# Summary of the method: as §1
# [22] = target: Fuc(a1-2)[Gal(a1-3)]Gal(b1-4)[Fuc(a1-3)]GlcNAc(b1-3)GalNAc
# Summary of the method: as §1
# [23] = target: Fuc(a1-2)[Gal(a1-4)]Gal(b1-4)GlcNAc
# Summary of the method: as §1
# [24] = target: Fuc(a1-2)[GalNAc(a1-3)]Gal
# Summary of the method: as §1
# [25] = target: Fuc(a1-2)[GalNAc(a1-3)]Gal(b1-3)GalNAc(a1-3)[Fuc(a1-2)]Gal(b1-4)GlcNAc
# Summary of the method: as §1
# [26] = target: Fuc(a1-2)[GalNAc(a1-3)]Gal(b1-3)GalNAc(b1-3)Gal(a1-4)Gal(b1-4)Glc
# Summary of the method: as §1
# [27] = target: Fuc(a1-2)[GalNAc(a1-3)]Gal(b1-3)GlcNAc
# Summary of the method: as §1
# [28] = target: Fuc(a1-2)[GalNAc(a1-3)]Gal(b1-3)GlcNAc(b1-2)Man(a1-3)[Fuc(a1-2)[GalNAc(a1-3)]Gal(b1-3)GlcNAc(b1-2)Man(a1-6)]Man(b1-4)GlcNAc(b1-4)GlcNAc
# Summary of the method: as §1
# [29] = target: Fuc(a1-2)[GalNAc(a1-3)]Gal(b1-3)GlcNAc(b1-2)Man(a1-3)[Fuc(a1-2)[GalNAc(a1-3)]Gal(b1-3)GlcNAc(b1-2)Man(a1-6)]Man(b1-4)GlcNAc(b1-4)[Fuc(a1-6)]GlcNAc
# Summary of the method: as §1
# [30] = target: Fuc(a1-2)[GalNAc(a1-3)]Gal(b1-3)GlcNAc(b1-3)GalNAc
# Summary of the method: as §1
# [31] = target: Fuc(a1-2)[GalNAc(a1-3)]Gal(b1-3)GlcNAc(b1-6)GalNAc
# Summary of the method: as §1
# [32] = target: Fuc(a1-2)[GalNAc(a1-3)]Gal(b1-4)Glc
# Summary of the method: as §1
# [33] = target: Fuc(a1-2)[GalNAc(a1-3)]Gal(b1-4)GlcNAc
# Summary of the method: as §1
# [34] = target: Fuc(a1-2)[GalNAc(a1-3)]Gal(b1-4)GlcNAc(b1-2)Man
# Summary of the method: as §1
# [35] = target: Fuc(a1-2)[GalNAc(a1-3)]Gal(b1-4)GlcNAc(b1-2)Man(a1-3)[Fuc(a1-2)[GalNAc(a1-3)]Gal(b1-4)GlcNAc(b1-2)Man(a1-6)]Man(b1-4)GlcNAc(b1-4)GlcNAc
# Summary of the method: as §1
# [36] = target: Fuc(a1-2)[GalNAc(a1-3)]Gal(b1-4)GlcNAc(b1-2)Man(a1-3)[Fuc(a1-2)[GalNAc(a1-3)]Gal(b1-4)GlcNAc(b1-2)Man(a1-6)]Man(b1-4)GlcNAc(b1-4)[Fuc(a1-6)]GlcNAc
# Summary of the method: as §1
# [37] = target: Fuc(a1-2)[GalNAc(a1-3)]Gal(b1-4)GlcNAc(b1-3)Gal(b1-4)GlcNAc
# Summary of the method: as §1
# [38] = target: Fuc(a1-2)[GalNAc(a1-3)]Gal(b1-4)GlcNAc(b1-3)Gal(b1-4)GlcNAc(b1-3)Gal(b1-4)GlcNAc
# Summary of the method: as §1
# [39] = target: Fuc(a1-2)[GalNAc(a1-3)]Gal(b1-4)GlcNAc(b1-3)GalNAc
# Summary of the method: as §1
# [40] = target: Fuc(a1-2)[GalNAc(a1-3)]Gal(b1-4)GlcNAc(b1-3)[Fuc(a1-2)[GalNAc(a1-3)]Gal(b1-4)GlcNAc(b1-6)]GalNAc
# Summary of the method: as §1
# [41] = target: Fuc(a1-2)[GalNAc(a1-3)]Gal(b1-4)GlcNAc(b1-6)GalNAc
# Summary of the method: as §1
# [42] = target: Fuc(a1-2)[GalNAc(a1-3)]Gal(b1-4)[Fuc(a1-3)]GlcNAc
# Summary of the method: as §1
# [43] = target: Fuc(a1-2)[GalNAc(a1-3)]Gal(b1-4)[Fuc(a1-3)]GlcNAc(b1-3)GalNAc
# Summary of the method: as §1
# [44] = target: Fuc(a1-2)[GalNAc(a1-4)]Gal(b1-4)GlcNAc
# Summary of the method: as §1
# [45] = target: Fuc(a1-2)[GalNAc(b1-3)]Gal
# Summary of the method: as §1
binder,measurement,setting,value
B1,glycan array binding signal (z-score),[1],-0.048
same,glycan array binding signal (z-score),[2],-0.263
same,glycan array binding signal (z-score),[3],-0.179
same,glycan array binding signal (z-score),[4],-0.197
same,glycan array binding signal (z-score),[5],-0.193
same,glycan array binding signal (z-score),[6],-0.24
same,glycan array binding signal (z-score),[7],-0.141
same,glycan array binding signal (z-score),[8],-0.149
same,glycan array binding signal (z-score),[9],-0.018
same,glycan array binding signal (z-score),[10],-0.101
same,glycan array binding signal (z-score),[11],-0.234
same,glycan array binding signal (z-score),[12],-0.09
same,glycan array binding signal (z-score),[13],-0.235
same,glycan array binding signal (z-score),[14],-0.226
same,glycan array binding signal (z-score),[15],-0.265
same,glycan array binding signal (z-score),[16],0.054
same,glycan array binding signal (z-score),[17],-0.235
same,glycan array binding signal (z-score),[18],-0.176
same,glycan array binding signal (z-score),[19],-0.178
same,glycan array binding signal (z-score),[20],-0.235
same,glycan array binding signal (z-score),[21],-0.091
same,glycan array binding signal (z-score),[22],-0.339
same,glycan array binding signal (z-score),[23],-0.173
same,glycan array binding signal (z-score),[24],-0.204
same,glycan array binding signal (z-score),[25],-0.25
same,glycan array binding signal (z-score),[26],-0.288
same,glycan array binding signal (z-score),[27],-0.222
same,glycan array binding signal (z-score),[28],-0.298
same,glycan array binding signal (z-score),[29],0.526
same,glycan array binding signal (z-score),[30],-0.155
same,glycan array binding signal (z-score),[31],-0.306
same,glycan array binding signal (z-score),[32],-0.218
same,glycan array binding signal (z-score),[33],-0.252
same,glycan array binding signal (z-score),[34],-0.326
same,glycan array binding signal (z-score),[35],-0.319
same,glycan array binding signal (z-score),[36],0.016
same,glycan array binding signal (z-score),[37],-0.3
same,glycan array binding signal (z-score),[38],-0.002
same,glycan array binding signal (z-score),[39],-0.227
same,glycan array binding signal (z-score),[40],-0.21
same,glycan array binding signal (z-score),[41],-0.283
same,glycan array binding signal (z-score),[42],-0.163
same,glycan array binding signal (z-score),[43],-0.031
same,glycan array binding signal (z-score),[44],-0.456
same,glycan array binding signal (z-score),[45],-0.31

# From the supplement of paper PMC8728848
